For series [1], the system named is 3LL. The series can be described thus: cell viability relative to siNT1 control; higher = less toxic. The settings on record: concentration: 10 nM; 96 h; Mus musculus. As to the method: (§1)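 Arrayed screen of 4096 siRNA duplexes, each carrying one of all possible 6mer seeds at guide-strand positions 2-7 in a fixed neutral 19mer scaffold (constant flanks: U at position 1, then ACAUGUAAACCA, plus a 3' AA overhang). The passenger strand is 2'-O-methylated at positions 1-2 so only the guide strand loads into RISC. Duplexes were reverse-transfected at 10 nM with RNAiMAX in triplicate in 384-well plates; viability was read by CellTiter-Glo ATP content 96 h after transfection. Values are % viability normalised to lipid-only wells (HeyA8, H460, M565) or to siNT1 (3LL).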

The subject of series [2] is H460. Briefly: cell viability relative to lipid-only control; HeyA8 human ovarian and H460 human lung cancer; M565 mouse liver and 3LL mouse lung cancer; siNT1 is a non-toxic control siRNA; higher = less toxic. As to conditions: concentration: 10 nM; 96 h; Homo sapiens. As to the method:
as §1

Series [3] deals with M565. The description is as above. The settings on record: concentration: 10 nM; 96 h; Mus musculus. As to the method:
as §1

In series [4] the test system is HeyA8. The series is described as above. As to conditions: concentration: 10 nM; 96 h; Homo sapiens. The method, then: as §1

± gives the uncertainty stated by the source. Shown are siRNA guide strands that differ only in the seed, positions 2 to 7.
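Wherever cell viability relative to siNT1 control is given: Luminescence-based viability of cells reverse transfected in 384-well plates with lipid-complexed siRNAs built on a non-toxic 19mer backbone whose passenger strand carries 2′-O-methyl groups at positions 1 and 2, triplicates.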

The cell viability is a read-out of living cells in per cent, often relative to untreated cells. With UAAGGGGACAUGUAAACCAAA, the cell viability stood at 79.5 ± 8.2% in series [1], 86.6 ± 8.8% in series [2], 63 ± 7% in series [3] and 67.6 ± 5.1% in series [4].
As to UGAAUCGACAUGUAAACCAAA, the cell viability in series [1] is 94 ± 22%; in series [2] it was 77.8 ± 25%; in series [3], 60.8 ± 10%; in series [4] it was 71.6 ± 5.3%.
On to UACAGGUACAUGUAAACCAAA, for which the cell viability was 66.6 ± 10% in series [1], 46.5 ± 2.2% in series [2], 38 ± 2.1% in series [3] and 12.4 ± 2.7% in series [4].
With UUACCUCACAUGUAAACCAAA, the cell viability in series [1] stood at 20.2 ± 4.5%; in series [2] it was 52.6 ± 5.3%; in series [3], 34.6 ± 8.3%; in series [4], 70.2 ± 1.6%.
For UACUAUGACAUGUAAACCAAA, in that order: 102 ± 11%, 62.7 ± 6.5%, 85.7 ± 6.7% and 87.2 ± 5.3%.
On to UCGAGGGACAUGUAAACCAAA, for which the cell viability in series [1] came to 75.5 ± 26%; in series [2] it was 71.2 ± 2.2%; in series [3], 25.2 ± 1.6%; in series [4], 48.4 ± 3.3%.
Take UCUUACUACAUGUAAACCAAA: the cell viability in series [1] is 97.6 ± 15%; in series [2], 60.8 ± 4.3%; in series [3], 74.3 ± 14%; in series [4], 86.2 ± 9.9%.
For the sequence UGCUGAGACAUGUAAACCAAA, the cell viability in series [1] worked out at 50.9 ± 1.6%; in series [2] it was 55.9 ± 5.1%; in series [3] it was 17.2 ± 7.5%; in series [4], 35.2 ± 1.7%.
As to UCGCGCUACAUGUAAACCAAA, the cell viability was found to be 91 ± 9.7% in series [1], 47.9 ± 5.1% in series [2], 57.5 ± 1.7% in series [3] and 46.1 ± 7.1% in series [4].
In the case of UUGCAAAACAUGUAAACCAAA, the cell viability was 107 ± 5.4% in series [1], 91.3 ± 17% in series [2], 100 ± 11% in series [3] and 94.2 ± 3.3% in series [4].
For UACACGAACAUGUAAACCAAA, the cell viability was 85.7 ± 10% in series [1], 81.7 ± 18% in series [2], 59.1 ± 13% in series [3] and 79.2 ± 5% in series [4].
Turning to UGGACUGACAUGUAAACCAAA, the cell viability in series [1] turned out to be 31.4 ± 3.4%; in series [2], 58.3 ± 12%; in series [3] it was 17.8 ± 1.1%; in series [4], 50.3 ± 11%.
For UGGCGCUACAUGUAAACCAAA, the cell viability in series [1] was 29 ± 7.2%; in series [2], 46.4 ± 3.8%; in series [3], 26.9 ± 6.2%; in series [4], 36.6 ± 3.3%.
Consider UCGGUAAACAUGUAAACCAAA, for which the cell viability in series [1] worked out at 93.3 ± 15%; in series [2] it was 83.7 ± 10%; in series [3], 83.7 ± 15%; in series [4] it was 93.3 ± 3.8%.
Consider UUUGCAAACAUGUAAACCAAA, for which the cell viability in series [1] is 107 ± 7%; in series [2], 100 ± 12%; in series [3], 100 ± 11%; in series [4], 103 ± 2.1%.
Consider UUGUCGUACAUGUAAACCAAA, for which the cell viability in series [1] is 44.1 ± 1%; in series [2] it was 62.8 ± 4.8%; in series [3], 45 ± 7%; in series [4] it was 79.8 ± 2.8%.
As to UUUUGGGACAUGUAAACCAAA, the cell viability in series [1] turned out to be 58.2 ± 7.8%; in series [2], 56.6 ± 3.1%; in series [3] it was 48.7 ± 3.8%; in series [4] it was 86.5 ± 6.6%.
With UCGCAGAACAUGUAAACCAAA, the cell viability in series [1] turned out to be 98.3 ± 20%; in series [2] it was 72.5 ± 12%; in series [3], 63.1 ± 12%; in series [4] it was 86.1 ± 11%.
On to UAACGUUACAUGUAAACCAAA, for which the cell viability in series [1] came to 96.8 ± 11%; in series [2], 62.3 ± 4.8%; in series [3] it was 115 ± 20%; in series [4], 90 ± 3.2%.
As to UCCCUUCACAUGUAAACCAAA, the cell viability in series [1] stood at 102 ± 24%; in series [2], 49.8 ± 5.5%; in series [3], 65 ± 18%; in series [4], 51.8 ± 6.2%.
Take UGAUAUCACAUGUAAACCAAA: the cell viability in series [1] was 32.4 ± 6.5%; in series [2], 38.9 ± 7.9%; in series [3] it was 51.7 ± 5.2%; in series [4], 11.6 ± 0.87%.
Consider UCGGCGGACAUGUAAACCAAA, for which the cell viability in series [1] amounted to 44.1 ± 10%; in series [2] it was 23.7 ± 1.2%; in series [3], 22.4 ± 2%; in series [4], 7.97 ± 0.97%.
For UGACAUGACAUGUAAACCAAA, the cell viability came to 91.8 ± 14% in series [1], 59.8 ± 6.5% in series [2], 49.9 ± 15% in series [3] and 88.7 ± 4.4% in series [4].
Consider UAAAGUCACAUGUAAACCAAA, for which the cell viability worked out at 37.5 ± 8.1% in series [1], 80.7 ± 10% in series [2], 49.3 ± 1.4% in series [3] and 76.8 ± 8.8% in series [4].
UAUAACCACAUGUAAACCAAA: the cell viability in series [1] worked out at 22 ± 2.7%; in series [2] it was 63 ± 8.5%; in series [3] it was 13 ± 1.9%; in series [4], 27.6 ± 3.3%.
Taken in the same sequence, the figures for UCGUGGAACAUGUAAACCAAA were 92.6 ± 14%, 74.9 ± 8.4%, 48.6 ± 6.2% and 39.2 ± 2.1%.
For the sequence UCAGCGCACAUGUAAACCAAA, the cell viability in series [1] came out at 70.1 ± 12%; in series [2], 56.3 ± 8.5%; in series [3], 46.8 ± 4.2%; in series [4], 68.1 ± 3.6%.
For UCAAUGCACAUGUAAACCAAA, in that order: 21.9 ± 6.5%, 48.4 ± 4.7%, 9.04 ± 1.4% and 26.4 ± 3%.

These data come from the supplement of paper PMC6206098.
